Test results published in publication PMC6602471.
Some of the results follow. At the low end of the ranking the order means little.

Biological target: T1, ELK1 (UniProt P19419)
T1 sequence: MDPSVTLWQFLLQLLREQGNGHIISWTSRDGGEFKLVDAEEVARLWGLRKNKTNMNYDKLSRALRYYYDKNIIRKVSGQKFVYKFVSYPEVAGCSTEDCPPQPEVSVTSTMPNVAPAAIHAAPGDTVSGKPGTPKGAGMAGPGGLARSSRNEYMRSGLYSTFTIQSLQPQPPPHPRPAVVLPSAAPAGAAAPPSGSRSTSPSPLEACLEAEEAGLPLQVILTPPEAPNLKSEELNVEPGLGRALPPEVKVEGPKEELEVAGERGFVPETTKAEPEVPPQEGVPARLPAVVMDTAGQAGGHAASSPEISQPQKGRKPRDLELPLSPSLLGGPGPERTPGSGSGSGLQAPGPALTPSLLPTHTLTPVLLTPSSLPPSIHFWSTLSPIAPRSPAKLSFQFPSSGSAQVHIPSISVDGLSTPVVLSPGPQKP
Test: custom PBM
Settings: custom protein-binding microarray; buffer, salt, pH and temperature not stated; high values mean tight binding; double strand, one strand shown

**Q.** Which binding signal (log fluorescence intensity) does the source give for “TGTCGGGTAAGGGAACGTAGATCACGTGAATGAAAAGTCTTGATTCGCTTGACGCTGCTG” here?
**A.** 8.84

**Q.** How did the binding signal (log fluorescence intensity) turn out when “CAGCGTAGGACTTCTTCCCTGAAGCAATTGATAACCGTCTTGATTCGCTTGACGCTGCTG” was run?
**A.** 8.89

**Q.** With “GGAAAAAGGCCCAGGGTAACACCGAAAGTGGGCTTAGTCTTGATTCGCTTGACGCTGCTG” as the sequence, how does the binding signal (log fluorescence intensity) read?
**A.** 8.94

**Q.** Which binding signal (log fluorescence intensity) does the source give for “CGGAAGTGTCGTAAACGTCGAATATCCGGTTCTTCTGTCTTGATTCGCTTGACGCTGCTG” here?
**A.** 11.7

**Q.** How did the binding signal (log fluorescence intensity) turn out when “CTGGGACTTGACCCAACTCTGGCACGTGGGTCGTTTGTCTTGATTCGCTTGACGCTGCTG” was run?
**A.** 8.84

**Q.** “TACTGACTTATATATGCGAATGCACAAGAATAGACCGTCTTGATTCGCTTGACGCTGCTG” was tested. Which binding signal (log fluorescence intensity) did it give?
**A.** 8.84

**Q.** “TAAAGGCAAGACGGTTGTGGTAGTTCCGGGTATTAAGTCTTGATTCGCTTGACGCTGCTG” was tested. Which binding signal (log fluorescence intensity) did it give?
**A.** 11

**Q.** “GTGTATAGGATCCCATCCACCACACGTGTTAAAATGGTCTTGATTCGCTTGACGCTGCTG” was tested. Which binding signal (log fluorescence intensity) did it give?
**A.** 8.9

**Q.** With “CTGGGACTTGACTCAACTCTGCCACGTGGGTCGTTTGTCTTGATTCGCTTGACGCTGCTG” as the sequence, how does the binding signal (log fluorescence intensity) read?
**A.** 8.85

**Q.** Which binding signal (log fluorescence intensity) does the source give for “CGGAAGTGCCGTAAACGTCGGATATCCGGTTCTTCTGTCTTGATTCGCTTGACGCTGCTG” here?
**A.** 12.5

**Q.** How did the binding signal (log fluorescence intensity) turn out when “CAGCATAGGACTTCTTCCCTGAAGAAATTGATAACCGTCTTGATTCGCTTGACGCTGCTG” was run?
**A.** 8.96

**Q.** How did the binding signal (log fluorescence intensity) turn out when “CTGGGACTTGAACCAACTCTGCCACGTGGGTCGTTTGTCTTGATTCGCTTGACGCTGCTG” was run?
**A.** 8.83

**Q.** Which binding signal (log fluorescence intensity) does the source give for “GCTGCTGCGGTGCATACCCCACCGGATGAGACCCCGGTCTTGATTCGCTTGACGCTGCTG” here?
**A.** 9.34

**Q.** For “TAAAGGGAAGACGGATGTGGTAGTTCCGGGTATTAAGTCTTGATTCGCTTGACGCTGCTG”, which binding signal (log fluorescence intensity) is on record?
**A.** 12.6

**Q.** With “CAGCATAGGACTTCTTCCCTGAAGCCATTGATAACCGTCTTGATTCGCTTGACGCTGCTG” as the sequence, how does the binding signal (log fluorescence intensity) read?
**A.** 8.99

**Q.** How did the binding signal (log fluorescence intensity) turn out when “TACTGACTTATATATGCGAATGCAGATGAATAGACCGTCTTGATTCGCTTGACGCTGCTG” was run?
**A.** 8.95

**Q.** “CAGCATAGGACTTCTTCCCTGAAGCAATTGATAGCCGTCTTGATTCGCTTGACGCTGCTG” was tested. Which binding signal (log fluorescence intensity) did it give?
**A.** 9.06

**Q.** How did the binding signal (log fluorescence intensity) turn out when “CTGGGACTTGACCCGACTCTGCCACGTGGGTCGTTTGTCTTGATTCGCTTGACGCTGCTG” was run?
**A.** 8.82

**Q.** “CAGCATAGGACTTCTTCCCTGAAGCAATTGATATCCGTCTTGATTCGCTTGACGCTGCTG” was tested. Which binding signal (log fluorescence intensity) did it give?
**A.** 9.07

**Q.** For “GTGTATAAGATCCCATCCAACACACGTGTTAAAATGGTCTTGATTCGCTTGACGCTGCTG”, which binding signal (log fluorescence intensity) is on record?
**A.** 8.8

**Q.** With “GGAAAAAGGCCCAGGGTACCACCGGAAGTGGGCTTAGTCTTGATTCGCTTGACGCTGCTG” as the sequence, how does the binding signal (log fluorescence intensity) read?
**A.** 11.1

**Q.** How did the binding signal (log fluorescence intensity) turn out when “TAAAGGGAAGACGGTTGTGGTTGTTCCGGGTATTAAGTCTTGATTCGCTTGACGCTGCTG” was run?
**A.** 10.5

**Q.** With “TACTGACTTATGTATGCGAATGCACATGAATAGACCGTCTTGATTCGCTTGACGCTGCTG” as the sequence, how does the binding signal (log fluorescence intensity) read?
**A.** 8.84

**Q.** Which binding signal (log fluorescence intensity) does the source give for “CAGCCTAGGACTTCTTCCCTGAAGCAATTGATAACCGTCTTGATTCGCTTGACGCTGCTG” here?
**A.** 8.8

**Q.** How did the binding signal (log fluorescence intensity) turn out when “CAGCATAGGACTTCTTCCCTGAAGGAATTGATAACCGTCTTGATTCGCTTGACGCTGCTG” was run?
**A.** 8.89

**Q.** With “CAGCATAGGACCTCTTCCCTGAAGCAATTGATAACCGTCTTGATTCGCTTGACGCTGCTG” as the sequence, how does the binding signal (log fluorescence intensity) read?
**A.** 8.85

**Q.** “GCTGCTGCGGTGCATACCCCACCGGATGTGACCCCTGTCTTGATTCGCTTGACGCTGCTG” was tested. Which binding signal (log fluorescence intensity) did it give?
**A.** 10.1

**Q.** Which binding signal (log fluorescence intensity) does the source give for “TCCGGCCACCAGCTCCACCCACTTCAGGCCTTGTAGGTCTTGATTCGCTTGACGCTGCTG” here?
**A.** 8.76

**Q.** “TCCGGCAACCAGCTCCACCCACTTCAGGCCTTGTAGGTCTTGATTCGCTTGACGCTGCTG” was tested. Which binding signal (log fluorescence intensity) did it give?
**A.** 8.79

**Q.** “GATTAATTTCTGCCCTCATTCGCACGTGCCATAACAGTCTTGATTCGCTTGACGCTGCTG” was tested. Which binding signal (log fluorescence intensity) did it give?
**A.** 8.87

**Q.** With “TAAAGGGAAGACGGTTGTCGTAGTTCCGGGTATTAAGTCTTGATTCGCTTGACGCTGCTG” as the sequence, how does the binding signal (log fluorescence intensity) read?
**A.** 10.9

**Q.** How did the binding signal (log fluorescence intensity) turn out when “GTGTATAGGATCCCATCCAATACACGTGTTAAAATGGTCTTGATTCGCTTGACGCTGCTG” was run?
**A.** 8.93

**Q.** With “TAAAGGGAAGACGGTTGAGGTAGTTCCGGGTATTAAGTCTTGATTCGCTTGACGCTGCTG” as the sequence, how does the binding signal (log fluorescence intensity) read?
**A.** 11.3

**Q.** Which binding signal (log fluorescence intensity) does the source give for “CAGCATAGGACTCCTTCCCTGAAGCAATTGATAACCGTCTTGATTCGCTTGACGCTGCTG” here?
**A.** 8.92

**Q.** With “ATGTATAGGATCCCATCCAACACACGTGTTAAAATGGTCTTGATTCGCTTGACGCTGCTG” as the sequence, how does the binding signal (log fluorescence intensity) read?
**A.** 8.79

**Q.** “GATTTATTTCTGCCCTTATTCGCACGTGCCATAACAGTCTTGATTCGCTTGACGCTGCTG” was tested. Which binding signal (log fluorescence intensity) did it give?
**A.** 8.91

**Q.** “TGGCGGGTAAGGGAATGTAGATCACGTGAATGAAAAGTCTTGATTCGCTTGACGCTGCTG” was tested. Which binding signal (log fluorescence intensity) did it give?
**A.** 8.95

**Q.** “TACTGACTTATATATGCGAAGGCACATGAATAGACCGTCTTGATTCGCTTGACGCTGCTG” was tested. Which binding signal (log fluorescence intensity) did it give?
**A.** 8.84

**Q.** With “CTGGGACTTAACCCAACTCTGCCACGTGGGTCGTTTGTCTTGATTCGCTTGACGCTGCTG” as the sequence, how does the binding signal (log fluorescence intensity) read?
**A.** 8.76

**Q.** For “TCCGGCTACCAGCTCCACCTACTTCAGGCCTTGTAGGTCTTGATTCGCTTGACGCTGCTG”, which binding signal (log fluorescence intensity) is on record?
**A.** 8.78
